# Laboratory results taken from publication PMC4336329 (PLoS ONE, 2015).
# In all, about 310,000 compounds went through this assay and about 14,000 (4.5%) showed an effect of 50% or more. Effects have a minus sign here. The list shows a part of the results.
# Molecular target: human ether-à-go-go-related gene (hERG) potassium channel (human, UniProt Q12809)
# Test: primary screen, population patch clamp on CHO cells stably expressing hERG
# 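Also: peak tail current of the secondary pulse compared with the same well before compound.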
# human ether-à-go-go-related gene (hERG) potassium channel, sequence (Q12809 whole entry, looked up): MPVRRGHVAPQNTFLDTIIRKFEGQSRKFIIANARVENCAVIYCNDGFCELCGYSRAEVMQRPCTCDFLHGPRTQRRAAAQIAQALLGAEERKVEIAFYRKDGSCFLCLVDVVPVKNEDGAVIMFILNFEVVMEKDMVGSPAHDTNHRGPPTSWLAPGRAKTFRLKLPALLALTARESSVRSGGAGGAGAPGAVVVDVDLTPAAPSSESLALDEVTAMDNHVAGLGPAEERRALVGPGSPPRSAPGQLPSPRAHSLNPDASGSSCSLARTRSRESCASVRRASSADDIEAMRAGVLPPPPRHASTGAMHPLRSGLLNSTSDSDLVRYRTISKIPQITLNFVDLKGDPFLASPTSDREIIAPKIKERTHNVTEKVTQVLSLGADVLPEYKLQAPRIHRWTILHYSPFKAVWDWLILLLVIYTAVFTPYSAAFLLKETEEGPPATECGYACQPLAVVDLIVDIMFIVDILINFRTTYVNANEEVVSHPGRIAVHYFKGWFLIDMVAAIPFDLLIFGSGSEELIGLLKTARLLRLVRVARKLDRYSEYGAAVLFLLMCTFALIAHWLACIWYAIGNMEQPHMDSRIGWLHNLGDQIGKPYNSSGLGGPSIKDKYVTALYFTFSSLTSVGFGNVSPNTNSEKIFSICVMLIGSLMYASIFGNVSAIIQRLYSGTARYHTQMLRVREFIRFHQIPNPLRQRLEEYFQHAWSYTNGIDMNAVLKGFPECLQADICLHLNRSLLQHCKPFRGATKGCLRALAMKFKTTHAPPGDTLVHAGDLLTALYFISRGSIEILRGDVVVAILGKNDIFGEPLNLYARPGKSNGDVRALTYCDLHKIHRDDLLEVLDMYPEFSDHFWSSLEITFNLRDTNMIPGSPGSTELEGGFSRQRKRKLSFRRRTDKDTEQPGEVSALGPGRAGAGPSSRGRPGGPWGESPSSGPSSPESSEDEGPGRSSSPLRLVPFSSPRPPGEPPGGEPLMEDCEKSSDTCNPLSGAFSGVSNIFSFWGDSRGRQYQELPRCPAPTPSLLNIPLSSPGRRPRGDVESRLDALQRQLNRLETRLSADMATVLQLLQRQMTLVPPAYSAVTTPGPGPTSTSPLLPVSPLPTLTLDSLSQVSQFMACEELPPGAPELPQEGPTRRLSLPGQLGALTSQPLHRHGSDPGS
row,Structure (SMILES),"hERG current change (%, negative = inhibition) at 10uM [%]"
1,C#CCNC(=O)C1=C[C@@H](C)C[C@@H](OCc2ccc(CO)cc2)O1,5.12
2,O=C(COC(=O)C1(c2cccc(F)c2)CCCC1)NCc1cccs1,11.3
3,CCOC(=O)/C(C#N)=C\c1ccco1,13.1
4,CCOc1ccc(/C=C2\SC(=S)N(N3C(=O)C4CC4C3=O)C2=O)cc1 (centres unmarked),15.4
5,Cc1cc(NC(=O)CCC(=O)N(c2ccc(F)cc2)C(C(=O)NC2CCCC2)c2ccncc2)no1 (centres unmarked),15.1
6,COc1cccc(CNC(=O)Cc2ccc(-c3ccccc3)cc2)c1,10.9
7,Cn1c(SCC(=O)NC2CCS(=O)(=O)C2)nnc1-c1ccco1 (centres unmarked),7.35
8,O=C1CSC(c2cccs2)N1c1ccccc1 (centres unmarked),15
9,CCCN1CCC(NC(=O)CCc2nnc(-c3ccccc3)o2)CC1,10.3
10,Cc1oc(/C=N/NC(=O)CN(c2ccccc2Br)S(C)(=O)=O)cc1Br,-2.1
11,COc1cnn(C(C)(C)C)c(=O)c1Cl,15.1
12,O=C(COC(=O)c1nsc(Cl)c1Cl)NC1CCCCC1,17.1
13,CCC1CCC(N2CCN(c3ccc([N+](=O)[O-])cc3)CC2)CC1 (centres unmarked),-79.8
14,CCCC(=O)Nc1nn(C)c2nc3ccc(C)cc3cc12,25.3
15,Cc1ccc(Nc2nc(COC(=O)C3CC3)cs2)cc1,-13.1
16,CCOC(=O)C1CCN(C2=NC(=O)/C(=C/c3ccc(OC)c(OC)c3)S2)CC1,-17.8
17,Cc1cccc(NC(=O)C(=O)NCC2CCCO2)c1 (centres unmarked),18.8
18,Cn1c(=O)n(Cc2ccccc2)c2ccccc21,-4.25
19,CCCC(=O)Nc1sc(C)c(-c2ccc(OC)cc2)c1C#N,-1.76
20,COc1ccc(-c2nnn(Cc3nc(N)nc(N4CCOCC4)n3)n2)cc1OC,-0.202
21,O=C1C(=C2CCCCC2)SC(=S)N1Cc1ccco1,-3.86
22,Cc1cc(N2CCN(C)CC2)nc(-c2ccccc2O)n1,-41.9

row,Structure (SMILES),"hERG current change (%, negative = inhibition) at 10uM [%]"
1,Cc1c(O)ccc(C(=O)CN2C(=O)c3ccccc3C2=O)c1O,19.4
2,CCN(c1ccccc1)S(=O)(=O)c1cccc(C(=O)O)c1,3.87
3,CC(=O)c1ccc(OC(=O)C2c3ccccc3Oc3ccccc32)cc1,1.88
4,CCCCN=C1SC(C(=O)Nc2sc3c(c2C(=O)OC)CCC3)C(N)=C1C(=O)N1CCOCC1 (centres unmarked),-1.11
5,COc1cc(/C=C2/C(=O)ON=C2C)cc(Cl)c1O,-17.5
6,CCN(CC)C(CNC(=O)CSc1nnnn1-c1ccc(C)c(C)c1)c1ccco1 (centres unmarked),-54.5
7,CCOC(=O)CC1C(=O)NCCN1C(=O)c1c(Cl)cccc1Cl (centres unmarked),16.2
8,CCC/C(=N\NC(=O)C1CC1)c1ccc(Br)cc1,11.9
9,C1CCC(C23CC4CC(CC(C4)C2)C3)NC1 (centres unmarked),5.21
10,CCOC(=O)C1CCCN(C2=C(NS(=O)(=O)c3ccc(Br)cc3)C(=O)c3ccccc3C2=O)C1 (centres unmarked),-49.1
11,CN(C(=O)CCN1C(=O)S/C(=C\c2ccccc2)C1=O)C1CCS(=O)(=O)C1 (centres unmarked),-0.0298
12,COc1ccc(NCc2nnc(SCc3ccc(Cl)cc3)n2-c2ccccc2)cc1,-2.47
13,O=C(CCCC(=O)N(CC(=O)NC1CCCCC1)c1ccc(F)cc1)Nc1ccccn1,7.12
14,O=C1[C@H]2[C@@H](c3ccc(F)cc3)N3C(=O)N(c4ccccc4)C(=O)[C@@]3(Cc3ccc(Cl)cc3)[C@H]2C(=O)N1C1CCCCC1,8.97
15,CC(C)(C)C1=NN(C(=O)c2ccccc2)C(O)(C(C)(C)C)C1 (centres unmarked),-32.6
16,CC(=O)NCc1ccc(S(=O)(=O)NC(C)CCc2ccccc2)cc1 (centres unmarked),13.3
17,CC(=O)NC1C(=O)N=C(SCC(=O)Nc2sc3c(c2C#N)CCCCCC3)NC1=O (centres unmarked),9.21
18,Cc1cc(C(=O)Nc2c(C)nn(Cc3ccccc3Cl)c2C)no1,-3.4
19,O=C(CNC1CCCCC1)N1CCc2ccccc2C1,-8.04
20,C=C(C)C(=O)Nc1cccc(C2=NOC3(C2)C[C@@H](C(N)=O)N(C(=O)/C=C/CC)C3)c1 (some centres unmarked),2.42
21,CC(Oc1ccccc1Cl)C(=O)N(Cc1ccco1)C1CCS(=O)(=O)C1 (centres unmarked),-8.93
22,Cc1c(NC(=O)C23CC4CC(CC(C4)C2)C3)c(=O)n(-c2ccccc2)n1C,20.7
